Publication PMC9650030, “The RNA repair proteins RtcAB regulate transcription activator RtcR via its CRISPR-associated Rossmann fold domain” (iScience, 2022)
Results are given in words; binding and its absence hold for the method and conditions named. Some binding calls cover weakened binding; strength is not graded here. Sequences can lack the tags named with a protein.

Protein sequences, listed by entry. Tags and fused reporters are not part of them.
UniProt P37931: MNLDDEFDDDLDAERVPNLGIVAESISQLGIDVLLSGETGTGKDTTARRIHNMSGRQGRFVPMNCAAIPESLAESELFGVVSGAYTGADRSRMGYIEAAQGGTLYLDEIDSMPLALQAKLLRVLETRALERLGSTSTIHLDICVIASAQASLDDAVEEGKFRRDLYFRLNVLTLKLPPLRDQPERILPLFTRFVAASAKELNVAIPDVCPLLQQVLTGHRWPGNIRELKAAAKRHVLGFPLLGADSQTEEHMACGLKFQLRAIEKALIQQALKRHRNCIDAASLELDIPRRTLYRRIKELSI

T1: RtcR CARF domain on its own, T18/T25 fusion (bacterial two-hybrid; RtcR_(1-186)) (Escherichia coli) (UniProt P38035)
T1 sequence: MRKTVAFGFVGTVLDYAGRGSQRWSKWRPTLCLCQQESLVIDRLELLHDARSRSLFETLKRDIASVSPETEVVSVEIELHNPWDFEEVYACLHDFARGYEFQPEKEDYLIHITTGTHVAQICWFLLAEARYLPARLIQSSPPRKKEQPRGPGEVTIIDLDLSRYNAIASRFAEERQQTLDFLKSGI

T2: RtcR_(ΔCARF), T18/T25 fusion (bacterial two-hybrid; RtcR_(187-532)) (Escherichia coli) (UniProt P38035)
T2 sequence: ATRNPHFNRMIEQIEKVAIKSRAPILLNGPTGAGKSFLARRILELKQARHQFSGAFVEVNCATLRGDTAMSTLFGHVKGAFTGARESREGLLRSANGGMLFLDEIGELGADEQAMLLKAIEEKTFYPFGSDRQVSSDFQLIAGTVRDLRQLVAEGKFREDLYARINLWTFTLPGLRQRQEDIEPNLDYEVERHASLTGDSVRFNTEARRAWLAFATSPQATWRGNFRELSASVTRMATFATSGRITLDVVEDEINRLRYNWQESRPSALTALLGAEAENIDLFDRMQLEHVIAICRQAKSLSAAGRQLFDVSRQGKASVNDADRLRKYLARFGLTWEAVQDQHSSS

T3: Full-length RtcR, T18/T25 fusion (bacterial two-hybrid) (Escherichia coli) (UniProt P38035)
T3 sequence: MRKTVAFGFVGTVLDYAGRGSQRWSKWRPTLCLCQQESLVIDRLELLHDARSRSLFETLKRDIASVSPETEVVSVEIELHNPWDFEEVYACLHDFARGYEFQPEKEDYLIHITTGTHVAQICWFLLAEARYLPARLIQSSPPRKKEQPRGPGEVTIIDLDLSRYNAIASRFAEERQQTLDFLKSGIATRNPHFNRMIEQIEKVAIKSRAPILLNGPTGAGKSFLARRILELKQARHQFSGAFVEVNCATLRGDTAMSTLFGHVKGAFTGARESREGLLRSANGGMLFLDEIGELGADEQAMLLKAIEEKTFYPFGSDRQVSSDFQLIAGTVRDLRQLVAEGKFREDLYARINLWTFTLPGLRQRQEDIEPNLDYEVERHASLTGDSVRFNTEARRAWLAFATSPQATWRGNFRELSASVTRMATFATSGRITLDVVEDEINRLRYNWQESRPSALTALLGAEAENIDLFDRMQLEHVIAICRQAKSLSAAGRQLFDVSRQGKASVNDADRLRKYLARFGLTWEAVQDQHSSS

T4: Full-length RtcB, T18/T25 fusion (bacterial two-hybrid) (Escherichia coli) (UniProt P46850)
T4 sequence: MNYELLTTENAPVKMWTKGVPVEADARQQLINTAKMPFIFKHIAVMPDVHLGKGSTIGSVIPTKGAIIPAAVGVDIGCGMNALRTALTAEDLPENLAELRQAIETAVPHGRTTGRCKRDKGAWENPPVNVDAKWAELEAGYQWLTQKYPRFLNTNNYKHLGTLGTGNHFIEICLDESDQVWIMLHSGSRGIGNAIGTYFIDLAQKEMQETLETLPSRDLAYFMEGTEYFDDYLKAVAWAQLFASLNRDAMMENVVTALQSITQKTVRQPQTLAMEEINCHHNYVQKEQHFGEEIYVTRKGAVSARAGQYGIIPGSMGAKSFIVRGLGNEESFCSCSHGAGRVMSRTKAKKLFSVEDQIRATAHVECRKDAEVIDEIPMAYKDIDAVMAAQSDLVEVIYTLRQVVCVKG

T5: His-RtcB (N-terminal his-tagged RNA ligase RtcB) (Escherichia coli) (UniProt P46850)
T5 sequence: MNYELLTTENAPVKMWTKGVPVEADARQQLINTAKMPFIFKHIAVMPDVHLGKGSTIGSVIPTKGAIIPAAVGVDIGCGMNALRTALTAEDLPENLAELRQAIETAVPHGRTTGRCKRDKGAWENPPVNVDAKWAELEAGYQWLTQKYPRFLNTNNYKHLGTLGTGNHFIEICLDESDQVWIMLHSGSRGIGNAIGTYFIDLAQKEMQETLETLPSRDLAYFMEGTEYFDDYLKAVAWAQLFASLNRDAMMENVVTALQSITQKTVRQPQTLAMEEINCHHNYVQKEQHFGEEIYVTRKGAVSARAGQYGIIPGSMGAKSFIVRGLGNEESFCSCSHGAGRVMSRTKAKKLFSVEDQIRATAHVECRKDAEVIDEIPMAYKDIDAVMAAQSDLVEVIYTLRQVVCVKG


What was measured:
[1] = target: T1, RtcR CARF domain on its own, T18/T25 fusion (bacterial two-hybrid; RtcR_(1-186)) (Escherichia coli); test: two-hybrid; bacterial adenylate cyclase two-hybrid (BACTH) in E. coli BTH101; pairs of N- or C-terminal T18/T25 fusions; β-galactosidase read-out against T18 and T25 alone
[2] = target: T2, RtcR_(ΔCARF), T18/T25 fusion (bacterial two-hybrid; RtcR_(187-532)) (Escherichia coli); test: as above
[3] = target: T1, RtcR CARF domain on its own, T18/T25 fusion (bacterial two-hybrid; RtcR_(1-186)) (Escherichia coli); test: two-hybrid; tripartite (three-hybrid) BACTH: T18/T25 pair plus the third Rtc protein expressed in trans (RtcB from pBAD18cm for RtcR-RtcA pairs; RtcA for RtcR-RtcB and CARF-RtcB pairs); β-galactosidase read-out
[4] = target: T3, Full-length RtcR, T18/T25 fusion (bacterial two-hybrid) (Escherichia coli); test: two-hybrid; bacterial adenylate cyclase two-hybrid (BACTH) in E. coli BTH101; pairs of N- or C-terminal T18/T25 fusions; β-galactosidase read-out against T18 and T25 alone
[5] = target: T4, Full-length RtcB, T18/T25 fusion (bacterial two-hybrid) (Escherichia coli); test: as above
[6] = target: HrpS, T18/T25 fusion (bacterial two-hybrid) (Pseudomonas syringae) (UniProt P37931); test: as above
[7] = target: T3, Full-length RtcR, T18/T25 fusion (bacterial two-hybrid) (Escherichia coli); test: two-hybrid; tripartite (three-hybrid) BACTH: T18/T25 pair plus the third Rtc protein expressed in trans (RtcB from pBAD18cm for RtcR-RtcA pairs; RtcA for RtcR-RtcB and CARF-RtcB pairs); β-galactosidase read-out
[8] = target: T5, His-RtcB (N-terminal his-tagged RNA ligase RtcB) (Escherichia coli); test: SEC; Superdex 200 (10 by 300 mm); proteins at equimolar concentrations (20 μM); fractions checked by SDS-PAGE and immunoblotting; both purified

Binder	binding [1]	binding [2]	binding [3]	binding [4]	also measured
Full-length RtcB, T18/T25 fusion (bacterial two-hybrid) (enzyme, UniProt P46850 1-408) MNYELLTTENAPVKMWTKGVPVEADARQQLINTAKMPFIFKHIAVMPDVHLGKGSTIGSVIPTKGAIIPAAVGVDIGCGMNALRTALTAEDLPENLAELRQAIETAVPHGRTTGRCKRDKGAWENPPVNVDAKWAELEAGYQWLTQKYPRFLNTNNYKHLGTLGTGNHFIEICLDESDQVWIMLHSGSRGIGNAIGTYFIDLAQKEMQETLETLPSRDLAYFMEGTEYFDDYLKAVAWAQLFASLNRDAMMENVVTALQSITQKTVRQPQTLAMEEINCHHNYVQKEQHFGEEIYVTRKGAVSARAGQYGIIPGSMGAKSFIVRGLGNEESFCSCSHGAGRVMSRTKAKKLFSVEDQIRATAHVECRKDAEVIDEIPMAYKDIDAVMAAQSDLVEVIYTLRQVVCVKG	binds	no binding	no binding (condition: with RtcA expressed in trans)	–	–
Full-length RtcR, T18/T25 fusion (bacterial two-hybrid) (protein, UniProt P38035 1-532) MRKTVAFGFVGTVLDYAGRGSQRWSKWRPTLCLCQQESLVIDRLELLHDARSRSLFETLKRDIASVSPETEVVSVEIELHNPWDFEEVYACLHDFARGYEFQPEKEDYLIHITTGTHVAQICWFLLAEARYLPARLIQSSPPRKKEQPRGPGEVTIIDLDLSRYNAIASRFAEERQQTLDFLKSGIATRNPHFNRMIEQIEKVAIKSRAPILLNGPTGAGKSFLARRILELKQARHQFSGAFVEVNCATLRGDTAMSTLFGHVKGAFTGARESREGLLRSANGGMLFLDEIGELGADEQAMLLKAIEEKTFYPFGSDRQVSSDFQLIAGTVRDLRQLVAEGKFREDLYARINLWTFTLPGLRQRQEDIEPNLDYEVERHASLTGDSVRFNTEARRAWLAFATSPQATWRGNFRELSASVTRMATFATSGRITLDVVEDEINRLRYNWQESRPSALTALLGAEAENIDLFDRMQLEHVIAICRQAKSLSAAGRQLFDVSRQGKASVNDADRLRKYLARFGLTWEAVQDQHSSS	–	–	–	binds	–
Full-length RtcA, T18/T25 fusion (bacterial two-hybrid) (enzyme, UniProt P46849 1-338) MKRMIALDGAQGEGGGQILRSALSLSMITGQPFTITSIRAGRAKPGLLRQHLTAVKAATEICGATVEGAELGSQRLLFRPGTVRGGDYRFAIGSAGSCTLVLQTVLPALWFADGPSRVEVSGGTDNPSAPPADFIRRVLEPLLAKIGIHQQTTLLRHGFYPAGGGVVATEVSPVASFNTLQLGERGNIVQMRGEVLLAGVPRHVAEREIATLAGSFSLHEQNIHNLPRDQGPGNTVSLEVESENITERFFVVGEKRVSAEVVAAQLVKEVKRYLASTAAVGEYLADQLVLPMALAGAGEFTVAHPSCHLLTNIAVVERFLPVRFSLIETDGVTRVSIE	binds	no binding	–	binds	binding [5]: no binding; binding [6]: no binding; binding [7]: binds
RtcA expressed in trans (third protein of the tripartite two-hybrid assay) (enzyme, UniProt P46849 1-338) MKRMIALDGAQGEGGGQILRSALSLSMITGQPFTITSIRAGRAKPGLLRQHLTAVKAATEICGATVEGAELGSQRLLFRPGTVRGGDYRFAIGSAGSCTLVLQTVLPALWFADGPSRVEVSGGTDNPSAPPADFIRRVLEPLLAKIGIHQQTTLLRHGFYPAGGGVVATEVSPVASFNTLQLGERGNIVQMRGEVLLAGVPRHVAEREIATLAGSFSLHEQNIHNLPRDQGPGNTVSLEVESENITERFFVVGEKRVSAEVVAAQLVKEVKRYLASTAAVGEYLADQLVLPMALAGAGEFTVAHPSCHLLTNIAVVERFLPVRFSLIETDGVTRVSIE	–	–	binds	–	–
His-RtcA (N-terminal his-tagged RNA 3'-terminal phosphate cyclase RtcA) (enzyme, Escherichia coli, UniProt P46849 1-338, looked up, RtcA, RNA 3'-terminal phosphate cyclase, Escherichia coli; not shown: His tag, N-terminal, kept) MKRMIALDGAQGEGGGQILRSALSLSMITGQPFTITSIRAGRAKPGLLRQHLTAVKAATEICGATVEGAELGSQRLLFRPGTVRGGDYRFAIGSAGSCTLVLQTVLPALWFADGPSRVEVSGGTDNPSAPPADFIRRVLEPLLAKIGIHQQTTLLRHGFYPAGGGVVATEVSPVASFNTLQLGERGNIVQMRGEVLLAGVPRHVAEREIATLAGSFSLHEQNIHNLPRDQGPGNTVSLEVESENITERFFVVGEKRVSAEVVAAQLVKEVKRYLASTAAVGEYLADQLVLPMALAGAGEFTVAHPSCHLLTNIAVVERFLPVRFSLIETDGVTRVSIE	–	–	–	–	binding [8]: no binding (tested: 20 μM)
RtcR_(ΔCARF), T18/T25 fusion (bacterial two-hybrid; RtcR_(187-532)) (domain or fragment, UniProt P38035 187-532) ATRNPHFNRMIEQIEKVAIKSRAPILLNGPTGAGKSFLARRILELKQARHQFSGAFVEVNCATLRGDTAMSTLFGHVKGAFTGARESREGLLRSANGGMLFLDEIGELGADEQAMLLKAIEEKTFYPFGSDRQVSSDFQLIAGTVRDLRQLVAEGKFREDLYARINLWTFTLPGLRQRQEDIEPNLDYEVERHASLTGDSVRFNTEARRAWLAFATSPQATWRGNFRELSASVTRMATFATSGRITLDVVEDEINRLRYNWQESRPSALTALLGAEAENIDLFDRMQLEHVIAICRQAKSLSAAGRQLFDVSRQGKASVNDADRLRKYLARFGLTWEAVQDQHSSS	–	binds	–	–	–
